# The list shows a part of the results.
# B1: DC-ASGPR S+GEE (Homo sapiens) (protein)
# chain: MTRTYENFQYLENKVKVQGFKNGPLPLQSLLQRLRSGPCHLLLSLGLGLLLLVIICVVGFQNSKFQRDLVTLRTDFSNFTSNTVAEIQALTSQGSSLEETIASLKAEVEGFKQERQAVHSEMLLRVQQLVQDLKKLTCQVATINNNGEEASTEGTCCPVNWVEHQDSCYWFSHSGMSWAEAEKYCQLKNAHLVVINSREEQNFVQKYLGSAYTWMGLSDPEGAWKWVDGTDYATGFQNWKPGQPDDWQGHGLGGGEDCAHFHPDGRWNDDVCQRPYHWVCEAGLGQTSQESH
# Experiments:
# Assay in all cases: glycan array binding signal (z-score within array); higher = stronger binding
# Conditions in all cases: glycan notation: IUPAC condensed, linker removed
# [1] = biological target: Fuc(a1-2)[GalNAc(b1-3)]Gal
# In short: (§1)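 Negative Z-scores can be read as non-binding. The Z-score is calculated within each array and then averaged across arrays of one protein sequence at different concentrations or buffers and across linkers. Arrays, 3228 in all, were curated from the Consortium for Functional Glycomics database and kept only where the protein sequence was available.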
# Fuc(a1-3)GlcNAc = biological target: Fuc(a1-3)GlcNAc
# In short: as §1
# [2] = biological target: Fuc(a1-3)[Gal(b1-4)]Glc6S
# In short: as §1
# [3] = biological target: Fuc(a1-3)[Gal(b1-4)]GlcNAc
# In short: as §1
# [4] = biological target: Fuc(a1-3)[Gal(b1-4)]GlcNAc(b1-2)Man
# In short: as §1
# [5] = biological target: Fuc(a1-3)[Gal(b1-4)]GlcNAc(b1-2)Man(a1-3)[Fuc(a1-3)[Gal(b1-4)]GlcNAc(b1-2)Man(a1-6)]Man(b1-4)GlcNAc(b1-4)GlcNAc
# In short: as §1
# [6] = biological target: Fuc(a1-3)[Gal(b1-4)]GlcNAc(b1-2)Man(a1-3)[Fuc(a1-3)[Gal(b1-4)]GlcNAc(b1-2)Man(a1-6)]Man(b1-4)GlcNAc(b1-4)[Fuc(a1-6)]GlcNAc
# In short: as §1
# [7] = biological target: Fuc(a1-3)[Gal(b1-4)]GlcNAc(b1-3)Gal(b1-3)[Fuc(a1-4)]GlcNAc
# In short: as §1
# [8] = biological target: Fuc(a1-3)[Gal(b1-4)]GlcNAc(b1-3)Gal(b1-4)[Fuc(a1-3)]GlcNAc
# In short: as §1
# [9] = biological target: Fuc(a1-3)[Gal(b1-4)]GlcNAc(b1-3)Gal(b1-4)[Fuc(a1-3)]GlcNAc(b1-3)Gal(b1-4)[Fuc(a1-3)]GlcNAc
# In short: as §1
# [10] = biological target: Fuc(a1-3)[Gal(b1-4)]GlcNAc(b1-3)GalNAc
# In short: as §1
# [11] = biological target: Fuc(a1-3)[Gal(b1-4)]GlcNAc(b1-6)GalNAc
# In short: as §1
# [12] = biological target: Fuc(a1-3)[Gal(b1-4)]GlcNAc(b1-6)[Gal(b1-3)GlcNAc(b1-3)]Gal(b1-4)Glc
# In short: as §1
# [13] = biological target: Fuc(a1-3)[Gal(b1-4)]GlcNAc6S
# In short: as §1
# [14] = biological target: Fuc(a1-3)[Gal3S(b1-4)]Glc
# In short: as §1
# [15] = biological target: Fuc(a1-3)[Gal3S(b1-4)]GlcNAc
# In short: as §1
# [16] = biological target: Fuc(a1-3)[Gal3S(b1-4)]GlcNAc6S
# In short: as §1
# [17] = biological target: Fuc(a1-3)[GalNAc(b1-4)]GlcNAc
# In short: as §1
# [18] = biological target: Fuc(a1-3)[GalNAc(b1-4)]GlcNAc6S
# In short: as §1
# Fuc(a1-4)GlcNAc = biological target: Fuc(a1-4)GlcNAc
# In short: as §1
# Fuc(b1-3)GlcNAc = biological target: Fuc(b1-3)GlcNAc
# In short: as §1
# Gal(a1-2)Gal = biological target: Gal(a1-2)Gal
# In short: as §1
# Gal(a1-3)Gal = biological target: Gal(a1-3)Gal
# In short: as §1
# Gal(a1-3)Gal(b1-3)GlcNAc = biological target: Gal(a1-3)Gal(b1-3)GlcNAc
# In short: as §1
# [19] = biological target: Gal(a1-3)Gal(b1-3)GlcNAc(b1-2)Man
# In short: as §1
# [20] = biological target: Gal(a1-3)Gal(b1-3)GlcNAc(b1-2)Man(a1-3)[Gal(a1-3)Gal(b1-3)GlcNAc(b1-2)Man(a1-6)]Man(b1-4)GlcNAc(b1-4)GlcNAc
# In short: as §1
# [21] = biological target: Gal(a1-3)Gal(b1-3)GlcNAc(b1-3)GalNAc
# In short: as §1
# [22] = biological target: Gal(a1-3)Gal(b1-3)GlcNAc(b1-6)GalNAc
# In short: as §1
# [23] = biological target: Gal(a1-3)Gal(b1-3)[Fuc(a1-4)]GlcNAc(b1-2)Man(a1-3)[Gal(a1-3)Gal(b1-3)[Fuc(a1-4)]GlcNAc(b1-2)Man(a1-6)]Man(b1-4)GlcNAc(b1-4)GlcNAc
# In short: as §1
# Gal(a1-3)Gal(b1-4)Glc = biological target: Gal(a1-3)Gal(b1-4)Glc
# In short: as §1
# Gal(a1-3)Gal(b1-4)GlcNAc = biological target: Gal(a1-3)Gal(b1-4)GlcNAc
# In short: as §1
# [24] = biological target: Gal(a1-3)Gal(b1-4)GlcNAc(b1-2)Man
# In short: as §1
# [25] = biological target: Gal(a1-3)Gal(b1-4)GlcNAc(b1-2)Man(a1-3)[Gal(a1-3)Gal(b1-4)GlcNAc(b1-2)Man(a1-6)]Man(b1-4)GlcNAc(b1-4)GlcNAc
# In short: as §1
# [26] = biological target: Gal(a1-3)Gal(b1-4)GlcNAc(b1-3)GalNAc
# In short: as §1
# [27] = biological target: Gal(a1-3)Gal(b1-4)GlcNAc(b1-6)GalNAc
# In short: as §1
# [28] = biological target: Gal(a1-3)Gal(b1-4)[Fuc(a1-3)]GlcNAc
# In short: as §1
# [29] = biological target: Gal(a1-3)Gal(b1-4)[Fuc(a1-3)]GlcNAc(b1-2)Man(a1-3)[Gal(a1-3)Gal(b1-4)[Fuc(a1-3)]GlcNAc(b1-2)Man(a1-6)]Man(b1-4)GlcNAc(b1-4)GlcNAc
# In short: as §1
binder,measurement,setting,value
B1,glycan array binding signal (z-score),[1],4
same,glycan array binding signal (z-score),Fuc(a1-3)GlcNAc,-0.215
same,glycan array binding signal (z-score),[2],-0.337
same,glycan array binding signal (z-score),[3],-0.327
same,glycan array binding signal (z-score),[4],-0.257
same,glycan array binding signal (z-score),[5],-0.015
same,glycan array binding signal (z-score),[6],-0.294
same,glycan array binding signal (z-score),[7],-0.299
same,glycan array binding signal (z-score),[8],-0.391
same,glycan array binding signal (z-score),[9],-0.091
same,glycan array binding signal (z-score),[10],-0.321
same,glycan array binding signal (z-score),[11],2.2
same,glycan array binding signal (z-score),[12],-0.352
same,glycan array binding signal (z-score),[13],-0.315
same,glycan array binding signal (z-score),[14],-0.322
same,glycan array binding signal (z-score),[15],-0.308
same,glycan array binding signal (z-score),[16],-0.333
same,glycan array binding signal (z-score),[17],2.8
same,glycan array binding signal (z-score),[18],1.66
same,glycan array binding signal (z-score),Fuc(a1-4)GlcNAc,-0.265
same,glycan array binding signal (z-score),Fuc(b1-3)GlcNAc,-0.094
same,glycan array binding signal (z-score),Gal(a1-2)Gal,-0.304
same,glycan array binding signal (z-score),Gal(a1-3)Gal,-0.277
same,glycan array binding signal (z-score),Gal(a1-3)Gal(b1-3)GlcNAc,-0.245
same,glycan array binding signal (z-score),[19],-0.314
same,glycan array binding signal (z-score),[20],-0.415
same,glycan array binding signal (z-score),[21],-0.224
same,glycan array binding signal (z-score),[22],4.91
same,glycan array binding signal (z-score),[23],-0.197
same,glycan array binding signal (z-score),Gal(a1-3)Gal(b1-4)Glc,-0.323
same,glycan array binding signal (z-score),Gal(a1-3)Gal(b1-4)GlcNAc,-0.348
same,glycan array binding signal (z-score),[24],-0.458
same,glycan array binding signal (z-score),[25],-0.323
same,glycan array binding signal (z-score),[26],-0.313
same,glycan array binding signal (z-score),[27],3.92
same,glycan array binding signal (z-score),[28],-0.331
same,glycan array binding signal (z-score),[29],-0.257
